{"source": "patent US9745365B2", "about": "“Anti-influenza B virus hemagglutinin antibodies and methods of use” (priority 2014, dated 2017)", "key": {"[1]": {"tested_on": "influenza B virus B/Victoria/2000"}, "[2]": {"tested_on": "influenza B virus B/Victoria/2000", "conditions": "by day 11; 2 mg twice daily (BID) for five days"}, "[3]": {"tested_on": "influenza B virus B/Victoria/2000", "conditions": "by day 9 or 10; 4xLD100; treatment from 48 hours post infection"}}, "note": "Read-outs that look alike come from different tables or passages of the source.", "data": [{"smiles": "CCOC(=O)C1=C[C@@H](OC(CC)CC)[C@H](NC(C)=O)[C@@H](N)C1", "note": "[oseltamivir phosphate]", "values": [{"measurement": "protection compared to vehicle control treated animals", "setting": "[1]; 10, 30 or 100 mg/kg BID beginning 72 hours post infection", "value": "some protection"}, {"measurement": "mortality", "setting": "[1]; by day 11, even at the highest dose (10, 30 or 100 mg/kg BID beginning 72 hours post infection)", "value": 100, "unit": "%"}, {"measurement": "mortality", "setting": "[2]", "value": 100, "unit": "%"}, {"measurement": "mortality", "setting": "[3]", "value": 100, "unit": "%"}]}]}
